About 2,200 (0.71%) of roughly 310,000 compounds showed an effect of 50% or more. Effects have a minus sign here. This is one part of the list.

Sequence of human ether-à-go-go-related gene (hERG) potassium channel (Q12809 whole entry, looked up): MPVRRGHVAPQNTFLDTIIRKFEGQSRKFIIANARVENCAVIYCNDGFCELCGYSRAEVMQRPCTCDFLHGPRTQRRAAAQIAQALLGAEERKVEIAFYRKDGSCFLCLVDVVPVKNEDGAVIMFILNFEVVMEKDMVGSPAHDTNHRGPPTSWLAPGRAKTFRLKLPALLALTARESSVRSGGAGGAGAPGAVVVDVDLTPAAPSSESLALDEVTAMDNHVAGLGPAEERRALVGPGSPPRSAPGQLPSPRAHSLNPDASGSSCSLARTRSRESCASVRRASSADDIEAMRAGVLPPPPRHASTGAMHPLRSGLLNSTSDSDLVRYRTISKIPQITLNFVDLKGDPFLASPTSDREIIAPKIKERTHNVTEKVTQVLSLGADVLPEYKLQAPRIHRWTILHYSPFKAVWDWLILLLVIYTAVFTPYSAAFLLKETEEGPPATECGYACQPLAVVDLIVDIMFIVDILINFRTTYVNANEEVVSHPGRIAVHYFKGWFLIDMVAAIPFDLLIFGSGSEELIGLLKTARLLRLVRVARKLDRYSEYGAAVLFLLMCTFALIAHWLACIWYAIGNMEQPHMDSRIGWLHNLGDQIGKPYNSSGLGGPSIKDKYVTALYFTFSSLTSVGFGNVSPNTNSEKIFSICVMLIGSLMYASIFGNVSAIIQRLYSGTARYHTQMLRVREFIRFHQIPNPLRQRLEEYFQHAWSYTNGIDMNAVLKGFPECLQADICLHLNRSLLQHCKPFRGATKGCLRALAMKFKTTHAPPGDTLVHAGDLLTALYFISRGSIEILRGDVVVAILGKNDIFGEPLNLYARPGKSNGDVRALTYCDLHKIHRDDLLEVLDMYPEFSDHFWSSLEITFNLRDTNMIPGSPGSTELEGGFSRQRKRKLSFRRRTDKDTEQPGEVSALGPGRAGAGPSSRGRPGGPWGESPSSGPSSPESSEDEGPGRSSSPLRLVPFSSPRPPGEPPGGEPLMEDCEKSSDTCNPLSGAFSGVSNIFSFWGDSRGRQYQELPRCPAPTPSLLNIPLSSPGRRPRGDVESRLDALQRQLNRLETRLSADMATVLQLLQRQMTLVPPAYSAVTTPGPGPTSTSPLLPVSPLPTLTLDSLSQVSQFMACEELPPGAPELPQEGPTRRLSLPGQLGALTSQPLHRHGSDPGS

This experiment addresses human ether-à-go-go-related gene (hERG) potassium channel (human, UniProt Q12809). Kind of experiment: primary screen, population patch clamp on CHO cells stably expressing hERG.
Regarding `Cl.OCCN1CCN(CCCc2c3c(cc4c2CCC4)CCC3)CC1`, the “hERG current change (%, negative = inhibition) at 1uM” value is recorded as 12.3%.
Regarding `CC(=O)c1cccc(NC(=O)C(C)OC(=O)CCCN=C2NS(=O)(=O)c3ccccc32)c1` (stereo not drawn), the “hERG current change (%, negative = inhibition) at 1uM” value is given as 15.6%.
The value for `CC(=C/c1ccccc1)/C=N/NC(=O)c1cccs1` was 11%.
The value for `COc1cccc(-c2ccc3c(c2)S(=O)(=O)c2cccc(C(=O)O)c2C3=O)c1OC` was 10.7%; that for `Cc1ccc(C(C(=O)NC2CCCCC2)N(Cc2cccnc2)C(=O)C2COc3ccccc3O2)o1` (stereo not drawn) was -22.1%.
As to `COCCNC(=O)c1cccc(OC2CCN(Cc3ccc(F)cc3OC)CC2)c1`, the “hERG current change (%, negative = inhibition) at 1uM” value came out at 10.6%.
For `Cc1cccc(NC(=O)Cn2cnc3c(oc4ccccc43)c2=O)c1C`, the “hERG current change (%, negative = inhibition) at 1uM” value was determined as 10.8%.
`Cc1cc([N+](=O)[O-])nn1CCCC(=O)NCc1ccccc1`: the “hERG current change (%, negative = inhibition) at 1uM” value came to 7.3%.
The value for `COc1ccc(C2=NOC(C(=O)N(C)Cc3ccccc3)C2)cc1` (stereo not drawn) was 7.36%; that for `CCOC(=O)N1N=C(c2ccc(C)cc2)CC1(O)C(F)(F)F` (stereo not drawn) was 6.52%; that for `Cn1cccc1C(=O)OCc1csc(-c2ccccc2)n1` was 11.5%.
The value for `COc1ccc(NC(=O)CCCCCN2C(=O)[C@@H]3Cc4ccccc4CN3C2=O)cc1Cl` was -0.184%.
The value for `Cc1ccc(NC(=S)NC2CCCC2)cc1` was 7.44%; that for `O=C(COC(=O)C1CCN(S(=O)(=O)c2cccs2)CC1)Nc1ccccc1` was 7.75%; that for `CNc1nnc(-c2ccc(N(C)C)cc2)s1` was 8.56%.
Regarding `Cc1cc(Cl)cc(Br)c1OCCCNCC(C)O` (stereo not drawn), the “hERG current change (%, negative = inhibition) at 1uM” value worked out at 12%.
With `CCOC(=O)c1cnc2ccccc2c1NCc1ccco1`, the “hERG current change (%, negative = inhibition) at 1uM” value is -14.7%.
As to `COc1ccc(NC(=O)C2CCCN2C(=O)NCc2ccccc2)c(OC)c1` (stereo not drawn), the “hERG current change (%, negative = inhibition) at 1uM” value stood at 13.7%.
The value for `CCC(=O)Nc1c(C(=O)N2CCN(c3ccccn3)CC2)cnn1-c1ccc(C)cc1` was 2.22%.
The value for `CN(C1CCCCC1)S(=O)(=O)c1ccc(Cl)c(C(=O)O)c1` was 5.14%.
The value for `CC(=O)C1=C(O)C(=O)N(c2cccnc2)C1c1ccc(Cl)cc1` (stereo not drawn) was 6.38%; that for `Cc1ccc(NC(=O)CSc2nc(NS(=O)(=O)c3ccc(C)cc3)cc(=O)[nH]2)cc1` was 3.39%; that for `CCc1cc2c(CN3CCN(CCO)CC3)cc(=O)oc2cc1O` was 12.5%.
Turning to `COC(=O)c1c(NC(C)=O)sc2c1CCCC2`, the “hERG current change (%, negative = inhibition) at 1uM” value is listed as 2.13%.
The value for `Cn1c(=O)cc(OCCCC(=O)NCc2ccc(F)cc2Cl)c2ccccc21` was -0.234%; that for `Cc1ccc(/C=N\NC(=O)CC(=O)NCCc2ccccc2)cc1` was 6.86%; that for `CC(C)C(=O)Nc1ccc(N2CCN(C)CC2)c(F)c1` was 16%.
Take `NNC(=O)CNc1cccc(Cl)c1`: the “hERG current change (%, negative = inhibition) at 1uM” value was determined as 12.4%.
The value for `O=C(Cc1ccc(Cl)cc1)N1CCN(C(=O)c2ccco2)CC1` was 4.2%.
With `CCn1nccc1C(=O)Nc1ccccc1OC`, the “hERG current change (%, negative = inhibition) at 1uM” value is 19.3%.
In the case of `O=[N+]([O-])c1ccc(N2CCN(S(=O)(=O)c3cnc[nH]3)CC2)cc1`, the “hERG current change (%, negative = inhibition) at 1uM” value is listed as -32.2%.
The value for `CSc1nnc2c(n1)OC(c1ccc(C(=O)O)cc1)N(C(C)=O)c1ccccc1-2` (stereo not drawn) was 4.29%; that for `C=C1CN(Cc2ccccc2)S(=O)(=O)c2ccccc21` was 1.34%.
In the case of `O=C(CCC(=O)N/N=C/c1ccco1)N/N=C/c1ccco1`, the “hERG current change (%, negative = inhibition) at 1uM” value was 19.8%.
In the case of `Cc1cc(C)n(-c2nc(SCCN(C)C)c3c4c(sc3n2)CCCC4)n1`, the “hERG current change (%, negative = inhibition) at 1uM” value is recorded as -0.579%.
Take `CCOc1ccc(C(=O)N[C@H](C(=O)Nc2ccc(OC)c(S(=O)(=O)N3CCOCC3)c2)C(C)C)cc1`: the “hERG current change (%, negative = inhibition) at 1uM” value is 9.4%.
On to `CC1Cc2ccccc2N1C(=O)CN(C)CC(=O)Nc1ccc(OC(F)(F)F)cc1` (stereo not drawn), for which the “hERG current change (%, negative = inhibition) at 1uM” value is recorded as -0.294%.
Consider `CC(C)n1c2ccccc2c2nnc(SCC(=O)Nc3ccccc3C(=O)O)nc21`, for which the “hERG current change (%, negative = inhibition) at 1uM” value was determined as 16.2%.
For the molecule `COC(=O)/C(=C\c1ccc(O)cc1)c1nc2ccccc2[nH]1`, the “hERG current change (%, negative = inhibition) at 1uM” value stood at 12.9%.
For the molecule `COc1cc2c(C(=O)N3CCN(C4CCCCC4)CC3)cn(CC(C)C)c(=O)c2cc1OC`, the “hERG current change (%, negative = inhibition) at 1uM” value is -13.6%.
The value for `CO/N=C(\N)c1ccc([N+](=O)[O-])cc1` was -1.65%; that for `COC(=O)c1ccc(NC(=O)C[n+]2ccccc2C)cc1.[Cl-]` was 10%; that for `COc1ccc(/C=C/C(=O)NCC(=O)N/N=C/c2cccnc2)cc1` was 5.75%.
Turning to `CN(C)CCNc1ncnc2c1sc1nc(-c3ccccc3)c3c(c12)CCCC3`, the “hERG current change (%, negative = inhibition) at 1uM” value was determined as 8.06%.
For `COc1cc(C(=O)OC(C)CN2CCOCC2)cc(OC)c1OC.Cl` (stereo not drawn), the “hERG current change (%, negative = inhibition) at 1uM” value is given as -2.63%.
The value for `Cc1ccc([N+](=O)[O-])cc1S(=O)(=O)N1CCCCC1C(=O)O` (stereo not drawn) was 13.5%; that for `COCCN(CCOC)C(=O)C1CCCN(S(=O)(=O)c2ccc(NC(=O)OC)cc2)C1` (stereo not drawn) was 3.66%.
The value for `COc1ccc(CN2C(=O)c3ccccc3C2C(=O)NCc2cccnc2)c(OC)c1` (stereo not drawn) was 9.27%; that for `CN(C)CCCNC(NC(=O)c1cccs1)C(Cl)(Cl)Cl` (stereo not drawn) was 9.37%.
The value for `O=C(NCc1ccc(Cl)cc1)C(=O)NCC1OCCCN1S(=O)(=O)c1cccs1` (stereo not drawn) was 3.89%.
For `Cc1cc(C(=O)N/N=C/c2ccc(C)o2)c2ccccc2n1`, the “hERG current change (%, negative = inhibition) at 1uM” value is -3.79%.
The value for `O=C(Nc1ccccc1Cl)c1ccc(Cl)cc1Cl` was 10.7%; that for `COc1ccc(-c2nc(CN3CCCCC3c3nccn3C)c(C)o2)c(C)c1C` (stereo not drawn) was 0.294%; that for `S=C(NCc1ccco1)NCC(c1ccco1)N1CCCCC1` (stereo not drawn) was 9.79%.
The value for `O=C(NNC(=O)c1ccccc1O)c1ccc(NS(=O)(=O)c2ccc(F)c(F)c2)cc1` was 11.8%; that for `CCOc1ccccc1NC(=O)COc1coc(CN2CCc3ccccc3C2)cc1=O` was -1.89%; that for `O=C(O)CCCC(=O)Nc1ccccc1C(=O)N1CCCC1` was -1.41%.
The value for `CCN(c1ccc(OC)cc1)S(=O)(=O)N1CCCC(C(=O)NCc2ccccc2Br)C1` (stereo not drawn) was 13.2%; that for `C=C(C)C1CCC(C)=C1CC(C)(C)/C=N\n1cnnc1` (stereo not drawn) was 20.3%; that for `COc1ccc(NS(=O)(=O)c2ccc(N3CCCC3)c(NC(=S)Nc3ccc(SC(F)F)cc3)c2)cc1` was 14.2%.
For the molecule `Nc1[nH]ncc1-c1ccccc1`, the “hERG current change (%, negative = inhibition) at 1uM” value is 4.87%.
The value for `Cc1ccc(C)c(S(=O)(=O)N2CCN(C(=O)CCCc3c[nH]c4ccccc34)CC2)c1` was -1.38%; that for `COc1cc(CNCCCN2CCOCC2)cc(Cl)c1OCC(=O)NC(C)(C)C.Cl` was 21.6%; that for `CCOC(=O)N1CCC(NCCNC(=O)c2ccccc2Cl)CC1` was 11.1%.
As to `COc1ccc(S(=O)(=O)N2c3ccccc3OCC2CC(=O)O)cc1` (stereo not drawn), the “hERG current change (%, negative = inhibition) at 1uM” value was found to be 7.42%.
For the molecule `CC(=O)N(c1nc(/C=C\C(=O)O)cs1)c1ccccc1F`, the “hERG current change (%, negative = inhibition) at 1uM” value is reported as 10.9%.
On to `Cn1c(C(=O)OC(C(=O)NCc2ccco2)c2ccncc2)cc2sccc21` (stereo not drawn), for which the “hERG current change (%, negative = inhibition) at 1uM” value is given as -18.9%.
Turning to `O=C(Nc1nnc(S(=O)(=O)Cc2ccc(F)cc2)s1)c1ccccc1F`, the “hERG current change (%, negative = inhibition) at 1uM” value is given as 10.9%.
For the molecule `O=C(NC1(C(F)(F)F)NC(=O)N(c2ccc(F)cc2)C1=O)c1cccs1` (stereo not drawn), the “hERG current change (%, negative = inhibition) at 1uM” value is recorded as -3.72%.
With `O=C(NCCCN1CCCCC1)C1CC(=O)N(CCc2ccccc2)C1` (stereo not drawn), the “hERG current change (%, negative = inhibition) at 1uM” value is reported as 8.46%.
For `COc1ccc(C(=O)Nc2cc(C)on2)c(OC)c1`, the “hERG current change (%, negative = inhibition) at 1uM” value was determined as 10.7%.
In the case of `O=C(CCn1c(=O)oc2ccccc21)Nc1cccc(Br)c1`, the “hERG current change (%, negative = inhibition) at 1uM” value was 14.4%.
As to `CCCCOc1ccc(CN=C(N)N)cc1Cl`, the “hERG current change (%, negative = inhibition) at 1uM” value was 8.58%.
The value for `Br.O=C(NCCNCc1ccccn1)c1ccco1` was 12.8%; that for `Cc1cccc(NS(=O)(=O)c2ccc(-c3cnc(C4CC4)o3)cc2)c1C` was 13.6%; that for `Nc1nc(-c2c(Cl)cccc2Cl)no1` was 9.63%.
The value for `COc1ccc2cc(/C=N/NC(=O)CN(c3ccccc3C)S(=O)(=O)c3ccccc3)c(Cl)nc2c1` was 0.162%; that for `Cc1ccc(-n2[nH]c(C)c(C=Nc3ccc4[nH]c(=O)[nH]c4c3)c2=O)cc1C` was 2.58%.
The value for `COCC(C)n1c(C)cc(C(=O)CSc2nnnn2C2CCCC2)c1C` (stereo not drawn) was 5.12%; that for `COC(=O)CCC(=O)c1oc2ccc(Cl)cc2c1NC(=O)CCCN1C(=O)c2ccccc2C1=O` was 4.24%.
`COc1ccc(OC)c(NC(=O)c2nnn(CCc3ccccc3)c2N)c1`: the “hERG current change (%, negative = inhibition) at 1uM” value was 10.3%.
For the molecule `O=C(N/N=C/c1ccccn1)c1ccc(Br)o1`, the “hERG current change (%, negative = inhibition) at 1uM” value is 10.1%.
Turning to `CCc1nnc(/N=C/c2c(O)n(-c3ccc(Cl)cn3)c(=O)c3ccccc23)s1`, the “hERG current change (%, negative = inhibition) at 1uM” value worked out at 4.82%.
The value for `O=c1c2cnn(-c3ccc(F)cc3)c2ncn1Cc1cccnc1` was 4.83%.
The value for `CC(=O)Nc1ccc(S(=O)(=O)NCCc2c[nH]c3ccc(C)cc23)cc1` was 19.5%.
Regarding `Nc1nnc(SCC(=O)NC2CCCCC2)s1`, the “hERG current change (%, negative = inhibition) at 1uM” value came to 12.9%.
The value for `COc1cccc2c(SCC(=O)N/N=C/c3ccc(O)c(O)c3)cc(C)nc12` was 12.8%; that for `COc1ccc(C(=O)OCn2nnc3ccccc3c2=O)cc1OC` was 1.76%.
On to `O=C(NC1CCN(S(=O)(=O)c2ccc(F)cc2)CC1)c1ccccc1`, for which the “hERG current change (%, negative = inhibition) at 1uM” value came out at 8.67%.
The value for `O=C(CSc1ncccn1)Nc1ccc(S(=O)(=O)N2CCCCC2)cc1` was 4.38%.

Source of the values: paper PMC4336329 (PLoS ONE, 2015).
